Experimental data from PubChem BioAssay AID1159614 (National Center for Advancing Translational Sciences (NCATS), 2016).
Among all 45,000 compounds or so, about 65 (0.1%) were called active. Calls come from the whole dose curve; as a rule, active = well fitted activation curve with a large enough effect; inconclusive = small, poorly fitted or top-dose-only effect; inactive = no such curve, though single readings can be large or run the other way. This is one part of the list.

These compounds were tested against Galactocerebrosidase (Homo sapiens) (UniProt P54803) (assay: A Novel Cell-Based Assay to Identify Small Molecules for B -Galactocerebrosidase). Details: 145M-Twi-hGALC-G270D cells (Twitcher mouse brain line with human GALC G270D), HMU-beta-Gal fluorescence, 48 h; series mostly up to 57.5 µM; activation: at the top concentration.
Method in brief: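 Fluorescence readout: HMU-β-gal cleavage by mutant GALC (0.1 mM final, citrate/phosphate pH 5.2 with 1 mg/mL taurocholate), stopped with carbonate/bicarbonate plus Triton X-100. Cells: murine Twitcher 145M-Twi expressing human G270D GALC; qHTS for activators.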
Note: 0% is about no effect; nearly all actives have a fitted effect of over 65% in size.

Sequence of UniProt P54803 (P54803 whole entry, looked up): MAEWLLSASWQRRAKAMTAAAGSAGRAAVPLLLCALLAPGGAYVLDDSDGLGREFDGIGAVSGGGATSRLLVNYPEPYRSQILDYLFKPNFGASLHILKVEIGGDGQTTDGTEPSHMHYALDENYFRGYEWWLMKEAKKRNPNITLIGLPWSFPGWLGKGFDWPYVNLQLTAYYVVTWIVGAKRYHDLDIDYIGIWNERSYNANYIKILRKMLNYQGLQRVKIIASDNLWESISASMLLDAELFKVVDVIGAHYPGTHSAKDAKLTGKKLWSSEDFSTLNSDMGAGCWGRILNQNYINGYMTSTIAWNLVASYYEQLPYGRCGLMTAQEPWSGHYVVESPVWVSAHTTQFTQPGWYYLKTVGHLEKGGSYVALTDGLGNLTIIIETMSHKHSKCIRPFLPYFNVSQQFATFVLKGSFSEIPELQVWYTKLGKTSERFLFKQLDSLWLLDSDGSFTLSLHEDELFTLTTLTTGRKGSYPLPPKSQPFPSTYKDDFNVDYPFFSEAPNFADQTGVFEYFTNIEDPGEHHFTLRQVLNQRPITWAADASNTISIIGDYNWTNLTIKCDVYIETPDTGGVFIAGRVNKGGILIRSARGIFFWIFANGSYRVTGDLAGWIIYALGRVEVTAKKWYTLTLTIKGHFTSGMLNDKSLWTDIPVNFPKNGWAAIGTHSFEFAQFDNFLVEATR

activation, inactive:
Cc1ccc(OCC(=O)Nc2c(Cl)ccc3nsnc23)cc1C -31.4%
Cc1cccc2c1-c1sc(C(=O)NCCCN3CCN(c4cccc(Cl)c4)CC3)cc1CO2 -8.74%
Fc1ccc(-n2ncc3c(Nc4ccc(Oc5ccccc5)cc4)ncnc32)cc1 -8.26%
COc1ccc(NC(=O)CCc2c(C)nc3c(-c4ccccc4)c(C)nn3c2C)cc1Cl -37.5%
Cc1ccc2c(c1)c1c(c(=O)n(-c3ccccc3C)c(=O)n1Cc1ccccc1F)n2C -6.72%
Cn1c(C(=O)NCc2ccc(Cl)cc2)cc2c(=O)n(C)c3ccccc3c21 0.552%
Cc1ccc(Cl)cc1NC(=O)Cn1c(=O)oc2cc(S(=O)(=O)N3CCCCCC3)ccc21 -14.9%
CC(=O)c1cccc(Nc2c3c(nc4nc(-c5cccs5)nn24)CCCC3)c1 -6.8%
CC(=O)Nc1cccc(-c2nnc(SCC(=O)c3cc([N+](=O)[O-])ccc3Br)o2)c1 -5.36%
COc1cc(C(c2c(C)[nH][nH]c2=O)c2c(C)[nH][nH]c2=O)ccc1OC(=O)c1ccccc1F -15.6%
Cc1ccc(CNC(=O)C2CCN(c3nc4ccc(C)cc4[nH]3)CC2)cc1 -16.3%
COC(=O)c1ccc2oc(=O)c(S(=O)(=O)c3ccc(C)cc3)cc2c1 -5.42%
CCCC(=O)Nc1cccc(-c2nc3cc(C)c(C)cc3o2)c1C -8.62%
CC(=O)Nc1ccc(NC(=O)CSc2nnc3c4cc(Br)ccc4n(C)c3n2)cc1 -36.5%
COc1ccc(CNC(=O)c2ccc(Sc3ccc(Cl)cc3)c(NC(C)=O)c2)c(OC)c1 -6.75%
Cc1ccc2c(c1)c1c(c(=O)n(-c3cccc(Cl)c3)c(=O)n1C)n2C -5.47%
CCSc1ncc(Cl)c(C(=O)Nc2sc(C(C)=O)c(C)c2C(=O)OC)n1 -15.6%
COc1cc(OC)c(NC(=O)c2cnc(N3CCCC3)nc2C)cc1Cl -13.1%
CCc1cccc(NC(=O)c2c(C)oc3ncnc(N4CCCCC4)c23)c1 -21.5%
CCOC(=O)c1c(NC(=O)c2cc3nc(-c4ccc(OC)cc4)cc(C(F)(F)F)n3n2)sc(C)c1C -5.44%
COc1ccc(C(=O)c2oc3ccccc3c2NC(=O)c2nc(SC)ncc2Cl)cc1Cl -13.5%
O=C1CN(C(=O)COc2ccc(Cl)cc2Cl)C(c2ccc(F)cc2)c2cc(F)ccc2N1 (configuration not stated) -15.6%
CCN(CC)C(=O)CSc1nnc2[nH]c(=O)cc(C)n12 -21.4%
CCOC(=O)N1CCc2c(sc(NCc3cccs3)c2C(=O)Nc2cc(OC)ccc2OC)C1 1.13%
CCOC(=O)c1nnn(C(CC)C(=O)Nc2c(C)cccc2C)c1C(=O)OCC (configuration not stated) -22.4%
CC(C)c1ccc(Nc2cc(C(=O)NCc3cccs3)c3ccccc3n2)cc1 -7.48%
CCOc1ccc(-c2cccc(NS(=O)(=O)c3ccc(Cl)s3)c2)nn1 -15.6%
CCc1ccccc1NC(=O)CCCN1C(=O)COc2ccc(C)cc21 -1.7%
CCNc1nc(Oc2ccc(OCC(=O)OC)nn2)nc(N2CCOCC2)n1 -17.1%
CCOc1ccc2nc(N3CCCC(C(=O)NCc4ccc(OC)cc4)C3)sc2c1 (configuration not stated) -5.78%
Cc1ccc(NC(=O)N2CCN(c3nnc(C)c4c(C)n(-c5ccccc5)nc34)CC2)c(Cl)c1 -17.3%
CCc1ccc(-c2ccc3nnc(SCC(=O)Nc4cccc(C(C)=O)c4)n3n2)cc1 -21.1%
CCCNC(=O)Cn1c(=O)cc(C)c2c(C)nn(-c3cccc(F)c3)c21 -1.89%
COc1cc(Cl)c(C)cc1NC(=O)NC1COc2ccccc2C1 (configuration not stated) -2.71%
Cc1cccc(Oc2nc3c(c(=O)n(C)c(=O)n3C)n2C)c1C -16.9%
Cc1ccccc1-c1nn2c(=O)cc(CN3CCN(C(=O)c4ccccc4Br)CC3)nc2s1 -12.9%
N#Cc1c(-c2ccccc2)cc(-c2ccccc2)nc1SCC(=O)Nc1ccc(Cl)cc1 -15.1%
CCOC(=O)N1CCN(C(=O)c2cnn(-c3cccc(F)c3)c2-n2cccc2)CC1 -7.5%
CCc1ccccc1NC(=O)C(CCSC)NS(=O)(=O)c1ccc2c(c1)oc(=O)n2C (configuration not stated) -0.871%
COc1ccc(CCNC(=O)Cn2c(-c3cccs3)cc3cc(F)ccc32)cc1OC -24.5%
Cc1onc(-c2ccccc2)c1C(=O)Cl -14.8%
COc1cccc(CNC(=O)c2ccc(CS(=O)c3ccccc3)o2)c1 (configuration not stated) 7.54%
COc1ccc(CCNC(=O)CN2C(=O)COc3ccccc32)cc1OC -28.4%
COc1ccc(NC(=O)c2oc3ccccc3c2NC(=O)c2cc(OC)c(OC)c(OC)c2)cc1 13.6%
COc1ccccc1OCC(=O)Nc1cc(-c2ccc(C)cc2)no1 -20.7%
Fc1cccc(CSc2nc(NCCc3ccccc3)c3ccccc3n2)c1 7.04%
Oc1c(C(c2ccc(Cl)cc2)N2CCOCC2)sc2nc(-c3ccco3)nn12 (configuration not stated) -5.18%
CC1CCN(S(=O)(=O)c2ccc3nc(N4CCN(c5ccccc5)CC4)ccc3c2)CC1 -13.9%
COc1cc(NS(=O)(=O)c2cccs2)cc(OC)c1 -11.6%
CC(=O)c1cc(-c2ccc(F)cc2)n(CC(=O)NCc2ccc(C)cc2)c1C -14.2%
CCN(CC)c1ccc(NC(=O)c2sc3nc(-c4ccccc4)cn3c2C)cc1 -12.1%
CCCn1c2ccccc2c2cnn(CC(=O)NCCc3cc(OC)ccc3OC)c(=O)c21 -4.77%
CCOC(=O)c1cccc(NC(=O)NCc2ccc3c(c2)CCN3C(=O)CC)c1 -9.17%
Cc1nc(-c2ccc(F)cc2)sc1CCNC(=O)C(=O)Nc1ccc2c(c1)OCO2 -6.13%
Cc1ccc(CSc2ncccc2C(=O)O)cc1 -9.72%
Cc1ccc(S(=O)(=O)N2CCCc3cc(NC(=O)c4ccc(C(C)(C)C)cc4)ccc32)cc1 -3.08%
COc1cccc(-c2nc(CS(=O)(=O)CC(=O)NCCCc3ccccc3)c(C)o2)c1 -19.2%
CCCN(C(=O)NCc1noc2ccc(C)cc12)c1ccc(Cl)c(Cl)c1 -7.69%
CC1=C(C(=O)Nc2cccc(C(F)(F)F)c2)C(c2ccccn2)n2ncnc2N1 (configuration not stated) -22.3%
CCc1ccc(C(=O)c2cn(CC(=O)Nc3ccc(OC)c(Cl)c3)c3nc(C)ccc3c2=O)cc1 0.242%
Cc1ccc(Cl)cc1NC(=O)Cn1cc(S(=O)(=O)Cc2ccccc2Cl)c2ccccc21 -6.98%
CCC(=O)Nc1ccccc1-c1nc2ccccc2n(CC(=O)c2ccc(Br)cc2)c1=O 5.91%
